The test system of the data set is male wistar rats. Nature of the data set: Toxicity test, oral administration for four days. Particulars: 100 mg/kg/day orally for four days.

The record followed here is patent EP0992240A1, “THERAPEUTIC AGENT FOR ERECTION FAILURE” (MOCHIDA PHARMACEUTICAL CO., LTD., priority 1997, dated 1998).

For the molecule `Cc1cn2c3ccc(Br)cc3c3cc(OCC(=O)OC(C)(C)C)cc(c1=O)c32` [Example 15, 10-bromo-2-t-butoxycarbonylmethyloxy-5-methyl-4H-pyrido[3,2,1-jk]carbazol-4-one], the “abnormal change in body weight and general symptoms” value is given as “no abnormal change”. In addition, under “until the next morning of the completion of the administration”, the dead case result was “no dead case”.
